A short description of the test: qHTS Assay for Lipid Storage Modulators (AID 1519). The settings on record: Drosophila S3 cells, BODIPY lipid droplet/cell ratio, laser cytometry, cells loaded with oleic acid. A digest of the protocol:
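Cells seeded at 5,000 per well were treated with compounds over a concentration series and loaded with oleic acid (400 uM, as added). Lipid droplet fluorescence (488 nm excitation, 500-530 nm channel) was read by laser-scanning cytometry and normalized to 20 uM Triacsin C.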
Background: In qHTS, concentration-response curves come from the screen itself.

[1] abbreviates: measured here: cell count channel max response.
The mark [2] stands for this setting: measured here: cell number channel AC50.
The mark [3] stands for this setting: measured here: lipid (BODIPY) channel AC50.
Where [4] appears, read: measured here: lipid channel max response.

Some of the results follow. Shown are side measurements of this screen, not its main read-out; they come without a call. The list favours compounds with an active or inconclusive main result. The note in brackets gives the kind of curve behind each potency; many fits are weak.
Tags tell the direction and shape of the fitted curve.

For `c1ccc2c(NCCN3CCOCC3)nc(-c3ccc4c(c3)OCO4)nc2c1`, the max response came out at 55.2% under setting [1] and 60.6% under setting [4]. The AC50 (in general, the concentration giving half of the maximal activity seen) reads like this: under setting [2], 7.94 nM [rising, full curve, poor fit]; under setting [3], 10 nM [rising, full curve].
As to `OC[C@H]1NC[C@@H](O)[C@@H](O)[C@H]1O`, the max response by setting is: under setting [1], 61.1%; under setting [4], 67.7%. For the same compound, the AC50 was 17800 nM [rising, full curve, poor fit] under setting [2] and 22400 nM [rising, partial curve, poor fit] under setting [3].
With `CCNc1ncc2nc(-c3ccc(Cl)cc3)c(=O)n(-c3ccc(OC)cc3)c2n1`, the max response is, setting by setting: under setting [1], 31.4%; under setting [4], 28.4%. Moreover, the AC50 under setting [2] is 891 nM [rising, full curve, poor fit] and the AC50 under setting [3] is 562 nM [rising, full curve, poor fit].
Consider `C[C@@H](CCc1ccc(O)cc1)NCCc1ccc(O)c(O)c1`, for which the max response runs as follows: under setting [1], 20.7%; under setting [4], 32.9%. For the same compound, the AC50 was 15800 nM [rising, single point] under setting [2] and 12600 nM [rising, partial curve, poor fit] under setting [3].
Take `NC1(C(=O)O)CCCCC1`: the max response is -11.6% under setting [1] and -8.64% under setting [4]. Besides, the concentration at half-maximal activity (AC50) under setting [2] is 1120 nM [falling, full curve, poor fit] and the AC50 under setting [3] is 2820 nM [falling, full curve, poor fit].
Turning to `COc1cccc(Cn2c(=O)c(-c3cccs3)nc3cnc(N4CCN(C)CC4)nc32)c1`, the max response is 25.5% under setting [1] and -1.21% under setting [4]. Further, the half-maximal activity concentration (AC50) was 794 nM [rising, full curve, poor fit] under setting [2] and 708 nM [rising, partial curve, poor fit] under setting [3].
With `N#Cc1cccc(-c2nccc(-n3ccnc3)n2)c1`, the max response was 16.5% under setting [1] and 19.8% under setting [4]. In addition, the AC50 under setting [2] is 22.4 nM [rising, full curve, poor fit] and the half-maximal activity concentration (AC50) under setting [3] was 25.1 nM [rising, full curve, poor fit].

The record behind these values is PubChem BioAssay (NCATS).
